Laboratory results published in PubChem BioAssay AID686971 (National Center for Advancing Translational Sciences (NCATS), 2013).
About 7,500 (2.1%) of roughly 360,000 compounds were called active. Inconclusive results, whose numbers are uncertain, are shown with a selection of clear calls. The call rests on the fitted dose curve; in most records, active means well fitted cell-killing curve with a large enough effect; inconclusive means small, poorly fitted or top-dose-only effect, or effect the other way, or another doubt; inactive means no such curve, though single readings can be large or run the other way. Potencies of inconclusive entries are left out as doubtful fits.

Assay: qHTS for induction of synthetic lethality in tumor cells producing 2HG: qHTS for the HT-1080-IDH1KD cell line;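 on activity, negative = toxicity: 0% = DMSO wells and -100% = cell-free medium wells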
Conditions: HT-1080 IDH1 knockdown viability, ATP luminescence, 48 h; activity, negative = toxicity: at 46.1 µM (top of the series) unless noted
In short: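 After a 2 h attachment period, IDH1KD HT-1080 cells took pin-transferred compound for 48 h at 37 °C; ATP-based luminescence after 10 min room-temperature reagent incubation reported viability.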
Potency means the concentration at half of the fitted maximal effect; tags describe the fitted curve by direction and shape.

Compound | Potency | activity, negative = toxicity
COC(Cc1n[nH]c(=S)n1-c1ccccc1)OC | inconclusive [rising, partial curve] | 
COc1cc(O)c(C(=O)/C=C/c2ccccc2)c(OC)c1 | inconclusive [cytotoxic, single point] | 
CCOc1ccc(NC(=S)N2CCCN(Cc3cccc(Cl)c3)C2)cc1 | inconclusive [cytotoxic, partial curve, poor fit] | 
Cc1ccc(-c2ccc(CN3C(C)C(=O)N(Cc4cn(CC5CCCCC5)nn4)CCS3(=O)=O)cc2)cc1 (centres undefined) | inconclusive [cytotoxic, partial curve] | 
C#Cc1ccc(NC(=O)C2(C)CCN2C(=O)c2ccccc2CCc2ccccc2)cc1 (centres undefined) | inconclusive [cytotoxic, single point] | 
CC(O)(c1cccc(F)c1)c1nc(-c2cc(F)cc(F)c2)cs1 (centres undefined) | inconclusive [cytotoxic, single point] | 
COc1cccc(C(=O)Nc2ccc(N3CCN(C(=O)c4ccco4)CC3)cc2)c1 | active: 11.6 µM | 
CCOC(=O)C(=NCCCN1CCOCC1)NNc1cccc(C(F)(F)F)c1 | inconclusive [cytotoxic, single point] | 
Cc1ccc(N(Cc2ccco2)C(=O)c2ccc(N3CCCCC3)c([N+](=O)[O-])c2)cc1 | inconclusive [cytotoxic, single point] | 
O=S(=O)(Cc1cccc(C(F)(F)F)c1)c1ncn[nH]1 | inactive | 
O=C(NNc1nc(-c2ccccc2)cs1)c1cccs1 | inconclusive [cytotoxic, single point] | 
COc1ccc(-c2[nH]ncc2-c2cnc(C)s2)c(O)c1 | inconclusive [cytotoxic, single point] | 
C=CCNC(=O)/C(C#N)=C/c1ccccc1OCc1ccc(C(=O)OC)cc1 | inconclusive [cytotoxic, single point] | 
Cc1ccc(-c2cc(-c3ccccc3)nc(NN)n2)cc1 | inconclusive [cytotoxic, single point] | 
Cc1c(C(=O)N2CCOCC2)sc(NC(=O)CCl)c1C#N | active: 11.6 µM | 
CC12CCC(O)CC1=CCC1C2CCC2(C)C3=NN=CC3CC12 (centres undefined) | active: 32.6 µM | 
CCc1ccn2cc(-c3ccc4c(c3)OCO4)nc2c1 | active: 13 µM | 
COC(=O)C1=CN(c2ccc(C(C)(C)C)cc2)C(N)=C(C#N)C1c1cccc2ccccc12 (centres undefined) | inconclusive [cytotoxic, partial curve] | 
CC(c1ccccc1)c1nnc(NC(=O)c2ccc3c(c2)OCO3)s1 (centres undefined) | inconclusive [cytotoxic, single point] | 
Cc1cc(=O)[nH]c(N=N/C(=N/Nc2ccc(O)cc2)c2ccccc2)n1 | inconclusive [cytotoxic, single point] | 
Cn1c(=O)c(=O)n(C)c2cc(S(=O)(=O)CCC(=O)Nc3c(F)c(F)c(F)c(F)c3F)ccc21 | inactive | 
COc1cccc(Nc2nc(N)nc(C(F)(F)F)n2)c1 | inconclusive [cytotoxic, single point] | 
COc1ccccc1N1CCN(C(=O)c2onc(C)c2Cl)CC1 | inconclusive [cytotoxic, single point] | 

Compound | Potency | activity, negative = toxicity
O=C(NCc1ccccc1)C1CCCN(C(=O)Nc2ccccc2)C1 (centres undefined) | inconclusive [cytotoxic, partial curve] | 
OC[C@@H]1CN(Cc2ccccc2)C[C@H](n2cnc3c(NCc4ccncc4)ncnc32)O1 | inactive | 
c1ccc(-c2cnc(-c3ccccn3)nn2)cc1 | inconclusive [cytotoxic, single point] | 
COc1ccc(OC)c(NC(=O)CSc2nnc(-c3cccnc3)s2)c1 | active: 18.4 µM | 
Nc1nc2ccccc2n1C(=O)c1ccc(F)cc1 | inconclusive [cytotoxic, single point] | 
CCOC(=O)c1cc2c(=O)n3ccccc3nc2n(Cc2ccco2)c1=NC(=O)c1ccccc1OC | inactive | 
Cc1ccc(NC(=O)Cn2c([N+](=O)[O-])cnc2C)cc1Cl | inactive | 
CN(C)CCCNc1nc(-c2ccccc2)nc2ccccc12 | inconclusive [cytotoxic, partial curve] | 
CC(/C=N\Nc1nnc2c(n1)[nH]c1c(C)cccc12)=C\c1ccco1 | inconclusive [cytotoxic, single point] | 
COc1cc(OC)c(NC(=S)Nc2cc(Cl)cc(Cl)c2)cc1Cl | inconclusive [cytotoxic, single point] | 
CCCSc1ccc([C@H]2N[C@@](CC(C)C)(C(=O)OC)[C@H]3C(=O)N(C)C(=O)[C@@H]23)cc1 | inactive | 
COc1ccc(/C=C(\NC(=O)c2cccs2)C(=O)Nc2cccc3ccccc23)cc1OC | inactive | 
CCOC(=O)c1[nH]c(C)c(C(=O)Nc2ccc(C)c(Cl)c2)c1C | active: 12.6 µM | 
C=C(C)CNC(=S)NNC(=O)CCn1c2cc(Cl)ccc2c2ccc(Cl)cc21 | inactive | 
CCn1c(=S)[nH]c2scc(-c3cccs3)c2c1=O | inconclusive [cytotoxic, single point] | 
C=CCNc1oc(/C=C/c2ccccc2)nc1C#N | inconclusive [cytotoxic, single point] | 
C=C1C(=O)C2=CC1CCC(=O)C1(C)CCC(OC(C)=O)C(C)(C)C1CC2O (centres undefined) | active: 5.8 µM | 
Cc1cccc2sc(N(CCCN(C)C)C(=O)COc3ccc(Cl)cc3)nc12 | inconclusive [cytotoxic, single point] | 
CN(C)c1ccc(/C=N/NC(=O)CCc2nc3ccccc3[nH]2)cc1 | inactive | 
Cc1cc(-c2cc(NC=O)c3ncc(-c4cccc(C(=O)NCCN(C)C)c4)n3c2)cc(C)c1O | active: 25.9 µM | 
O=S(=O)(/C=C/c1ccccc1)Oc1ccccc1 | inconclusive [cytotoxic, single point] | 
Cc1ccc(S(=O)(=O)N2CCCC(c3nnc4n3-c3ccccc3SC4)C2)cc1 (centres undefined) | inactive | 
COc1ccc(NC(=O)CSc2nc3ccccc3c3nc4ccccc4n23)cc1 | inconclusive [cytotoxic, partial curve] | 

Compound | Potency | activity, negative = toxicity
CCOc1ccc(CCN2C(=O)C(=O)N([C@@H](CC(C)C)CN3CCC[C@H]3CN3C(=O)C(=O)NC[C@@H]3Cc3ccc(O)cc3)C[C@@H]2Cc2ccccc2)cc1 | inconclusive [cytotoxic, single point] | 
Cc1cccc(NC(=O)CN2CCN(C(=O)c3ccc(OCc4cn5ccccc5n4)cc3)CC2)c1C | inactive | 
Cc1cccc(-c2nc(Nc3cccc(O)c3)c3ccccc3n2)c1 | inactive | 
O=C(Nc1ccc(Oc2cccc(C(F)(F)F)c2)nc1)c1cccs1 | inconclusive [cytotoxic, single point] | 
Cc1ccc(C(=O)N(CCN(C)C)CC2CCCN(Cc3ccccc3F)C2)cc1C (centres undefined) | inconclusive [cytotoxic, partial curve] | 
CCn1cnc2c1c(=O)n(Cc1csc(-c3ccccc3)n1)c(=O)n2Cc1ccccc1 | inconclusive [cytotoxic, single point] | 
CC(=O)c1ccc(N2CCN(CC(O)COC(c3ccccc3)c3ccccc3)CC2)cc1 (centres undefined) | inconclusive [cytotoxic, single point] | 
Cc1ccc(C(C)C)c(OCC(=O)Nc2ccc3c(c2)nc(CN2CCCC2)n3C)c1 | active: 23.1 µM | 
CC(=O)c1cccc(-c2cnc3c(NC=O)cc(-c4ccc(N5CCN(C)CC5)cc4)cn23)c1 | inactive | 
N#Cc1ccc2[nH]cc(C3c4cc(F)ccc4C=C(c4ccsc4)N3c3ccc(C#CCCO)cc3)c2c1 (centres undefined) | active: 14.6 µM | 
CC1(C(=O)NCc2cccc(Cl)c2)Cc2c(-c3ccc4c(c3)OCO4)ccnc2O1 (centres undefined) | inconclusive [cytotoxic, partial curve] | 
CC(C)OP(=O)(OC(C)C)/C(C=O)=N\Nc1ccc([N+](=O)[O-])cc1 | active: 16.4 µM | 
CCN1CCN(Cc2ccc(NC(=O)c3ccc(C)c(NC(=O)c4cncc(-c5cccs5)c4)c3)cc2C(F)(F)F)CC1 | active: 18.4 µM | 
O=[N+]([O-])c1ccc(O)c2ncccc12 | active: 16.4 µM | 
Cc1ccc(NC(=S)N(CCCN2CCCC2)Cc2cccn2Cc2ccc(Cl)cc2)cc1 | active: 23.1 µM | 
CC(C)(C)c1ccc(-c2noc(CCC(=O)NCc3ccco3)n2)cc1 | inconclusive [cytotoxic, single point] | 
COc1ccc(NC(=O)c2cc(-c3ccc(C)o3)nc3ccccc23)cc1 | inconclusive [cytotoxic, single point] | 
CCOC(=O)N1CCN(C(=O)COc2ccc(S(=O)(=O)NCc3ccccc3)cc2)CC1 | inactive | 
Cc1cc(NS(=O)(=O)c2ccc(NC(=O)COc3c(C)cc(Br)cc3C)cc2)no1 |  | inconclusive: -15.6% [cytotoxic]
CCc1cccc(CC)c1-n1c(SCc2cc(=O)n3ccsc3n2)nnc1-c1cccnc1 | inconclusive [cytotoxic, single point] | 
Cc1cc(-c2nn(-c3ccccc3F)cc2CN2CCN(c3ccccn3)CC2)c(C)s1 | inconclusive [cytotoxic, single point] | 
Cc1ccc(C(=O)/C=C/c2c(C)nn(-c3ccccc3)c2Cl)cc1 | inconclusive [cytotoxic, single point] | 
Cc1cccc(NC(=S)Nc2ccc3cn[nH]c3c2)c1 | inconclusive [rising, partial curve] | 
